Our source for the Potency values is PubChem BioAssay (NCATS).

A short description of experiment [1]: qHTS assay to identify small molecule inhibitors of chordoma cells - UCH-1 (AID 1259355). Further: nearly all actives have a fitted effect of over 55% in size. The conditions noted are these: UCH-1 chordoma viability, CellTiter-Glo, 48 h, combination, with auranofin plus four topoisomerase inhibitors; series mostly up to 46.1 µM. In short, it runs like this:
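Screening used approved and investigational drugs in 15-point titration against 800 seeded cells per well. A fixed combination of auranofin with camptothecin, doxorubicin, rubitecan and topotecan followed compound addition, and growth was scored by CellTiter-Glo after 48hr.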

Experiment [2] in a line: qHTS of pediatric cancer cell lines to identify multiple opportunities for drug repurposing: Primary screen for NB-EBc1 cells (AID 1347095). The conditions noted are these: NB-EBc1 neuroblastoma viability, CellTiter-Glo luminescence, 48 h; series mostly up to 46 µM. Background: Quantitative high-throughput screening tests each substance at several concentrations.
The nature of experiment [3]: qHTS of pediatric cancer cell lines to identify multiple opportunities for drug repurposing: Primary screen for NB1643 cells (AID 1347099). Further: nearly all actives have a fitted effect of over 50% in size. Particulars: NB1643 neuroblastoma viability, CellTiter-Glo luminescence, 48 h; series mostly up to 46 µM.
Experiment [4] can be described thus: Vero cells viability qHTS for Zika virus inhibitors (AID 1347167). The conditions noted are these: cytotoxicity counter-screen (Zika); series mostly up to 26.9 µM. In short, it runs like this: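 qHTS titration; 24-48 h compound exposure, 37 degrees C/5% CO2; DMEM, 4% FBS; CellTiter Glo ATP luminescence.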

Inconclusive results are not listed. The call rests on the fitted dose curve; in most records, active means well fitted curve in the direction sought with a large enough effect; inconclusive means small, poorly fitted or top-dose-only effect, or another doubt; inactive means no such curve, though single readings can be large; an effect the other way counts as inactive or inconclusive. More than one record can exist for a structure, and the calls need not agree. The source holds more than one record for some entries. Only these are listed. An entry can have further records. The records of an entry repeat one measurement (runs, samples, wells, individuals or studies). What stands in brackets tells the records apart. The letters are not those of the source and start again with each entry.
Potency means the concentration at half of the fitted maximal effect.

As to `CC(C)(C)c1ccc(C(O)CCCN2CCC(C(O)(c3ccccc3)c3ccccc3)CC2)cc1` (centres undefined), the Potency entry in experiment [1] is “active: 25.1 µM [sample A] and inactive [sample B]”. As to `COc1cc2ncnc(Nc3ccc(F)c(Cl)c3)c2cc1OCCCN1CCOCC1`, in experiment [2], the Potency result is “active: 1.36 µM [sample A] and inactive [sample B]”. With `CC(C)OC(=O)C(C)(C)Oc1ccc(C(=O)c2ccc(Cl)cc2)cc1`, the Potency entry in experiment [3] is “inactive [sample A] and active: 23.5 µM [sample B]”.

Take `CC1(C)CCC(CN2CCN(c3ccc(C(=O)NS(=O)(=O)c4ccc(NCC5CCOCC5)c([N+](=O)[O-])c4)c(Oc4cnc5[nH]ccc5c4)c3)CC2)=C(c2ccc(Cl)cc2)C1`: in experiment [4], the Potency entry is “active: 18.5 µM [sample A] and inactive [sample B]”.
